Results published in the supplement of paper PMC3334620.
Over roughly 33,000 sequences, “E-score (-0.5 to 0.5)” has its median near -0.035; the highest 2% begin near 0.35. The list shows a part of the results.

target: T1, Pdr3 (UniProt P33200); experiment: PBM E-score (8-mer binding enrichment) (E-score (-0.5 to 0.5)); higher = stronger / more preferred TF binding; most listed sequences are background and not binding sites; settings: protein concentration: 200 nM; construct: GST-full length
T1 sequence: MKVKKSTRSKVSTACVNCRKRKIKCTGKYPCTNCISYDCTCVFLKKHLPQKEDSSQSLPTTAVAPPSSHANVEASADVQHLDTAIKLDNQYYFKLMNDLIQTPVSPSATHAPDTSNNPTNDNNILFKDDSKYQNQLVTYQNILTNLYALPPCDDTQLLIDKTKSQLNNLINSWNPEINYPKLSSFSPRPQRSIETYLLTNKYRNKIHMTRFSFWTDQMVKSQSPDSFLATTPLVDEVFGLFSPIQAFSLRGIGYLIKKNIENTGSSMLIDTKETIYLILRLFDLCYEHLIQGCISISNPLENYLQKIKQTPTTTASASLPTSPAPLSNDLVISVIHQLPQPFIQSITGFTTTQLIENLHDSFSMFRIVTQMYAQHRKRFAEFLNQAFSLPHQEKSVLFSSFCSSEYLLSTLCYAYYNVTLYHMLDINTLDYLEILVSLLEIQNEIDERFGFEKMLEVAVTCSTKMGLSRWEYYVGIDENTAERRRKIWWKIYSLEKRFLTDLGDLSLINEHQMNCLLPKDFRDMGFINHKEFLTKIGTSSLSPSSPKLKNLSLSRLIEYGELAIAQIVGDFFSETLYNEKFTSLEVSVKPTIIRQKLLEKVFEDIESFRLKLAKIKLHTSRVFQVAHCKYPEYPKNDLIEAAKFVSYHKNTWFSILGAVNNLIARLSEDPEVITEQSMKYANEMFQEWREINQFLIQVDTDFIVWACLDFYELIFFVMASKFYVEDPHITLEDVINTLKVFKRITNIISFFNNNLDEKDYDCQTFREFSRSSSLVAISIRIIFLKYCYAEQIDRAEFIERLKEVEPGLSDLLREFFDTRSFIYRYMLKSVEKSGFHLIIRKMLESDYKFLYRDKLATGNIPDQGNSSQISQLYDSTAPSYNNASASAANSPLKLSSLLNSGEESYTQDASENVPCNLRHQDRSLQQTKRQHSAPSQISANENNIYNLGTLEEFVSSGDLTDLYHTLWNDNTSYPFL
Procedure: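 Universal 'all 10-mer' protein binding microarrays (Agilent AMADID 015681) probed with GST-tagged S. cerevisiae TFs (full-length or DBD) made by in vitro transcription/translation (PURExpress), about 100-200 nM. Bound TF was detected with fluorescent anti-GST. Each ungapped 8-mer (which stands for itself and its reverse complement) is scored by the PBM enrichment score (E-score), a modified Wilcoxon-Mann-Whitney statistic from -0.5 to +0.5, computed with the Universal PBM Analysis Suite. Scale: above 0.35 generally sequence-specific binding.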

Row | Sequence | PBM E-score
1 | AAAAACCG | 0.0966
2 | AAGACGGA | 0.283
3 | TATCTGAA | 0.0415
4 | CTCGACCC | 0.106
5 | AATTTCGA | -0.139
6 | ATAGGAGC | -0.179
7 | GAAGAGAA | 0.067
8 | CATATGGG | 0.00354
9 | CAAATCAC | -0.121
10 | AGATGCCT | -0.273
11 | AGTAAACG | -0.0758
12 | CGATGAAA | -0.0442
13 | AATACTTC | 0.0403
14 | CGTAACCC | -0.0878
15 | ACATCGTC | -0.11
16 | CATTGTCC | 0.184
17 | GTCGCACA | -0.0784
18 | GCGCCAAA | 0.128
19 | CCTCGGAC | 0.282
20 | ACTCGACG | 0.0934
21 | GCCTCCGC | 0.115
22 | GCCGTCCC | 0.216
23 | CCGATTAA | 0.128
24 | GTCTGGTA | -0.133
25 | GATGAAGC | 0.0523

Row | Sequence | PBM E-score
26 | GGCTCGAA | 0.00199
27 | TCTACCCA | -0.0331
28 | GAGGACCC | -0.0304
29 | ATAATCAG | -0.0167
30 | CATGGGTA | 0.0552
31 | CGTATGAC | -0.0884
32 | ACCTAGCG | 0.00103
33 | ATAGCTGG | 0.0363
34 | AGGGGCGG | 0.188
35 | CAATAGGG | -0.141
36 | CGAGTCCC | 0.3
37 | AAACCCAC | 0.0488
38 | ACATTGTC | 0.183
39 | CACGTAAG | -0.149
40 | CCGCTGTC | 0.151
41 | AAGCCTGC | -0.0948
42 | ATTGACAA | -0.154
43 | TATACCGA | 0.125
44 | CCAGCAAA | 0.04
45 | AAATTTGC | -0.0657
46 | AAATACTA | -0.0698
47 | TAACAACA | -0.0129
48 | CTTGTTGC | -0.149
49 | ATTAGCCG | 0.0673
50 | CACGTGCG | -0.0457

Row | Sequence | PBM E-score
51 | CACCTCCA | 0.0474
52 | ACACGTTA | -0.28
53 | AAAAATTC | -0.0497
54 | AAAAGCAC | -0.291
55 | ACCATAGC | -0.00487
56 | CACACGGA | 0.304
57 | GGGCTACC | -0.19
58 | CTGCGACA | -0.0812
59 | ATAGTACG | 0.157
60 | CAATGATC | -0.129
61 | ATTGGACA | 0.112
62 | AAGCCAAG | -0.0343
63 | CATCGATG | -0.0255
64 | ATGTAGAC | -0.239
65 | ATAGTTAG | -0.0506
66 | TAGGATGA | -0.0798
67 | GTATTGTA | -0.0341
68 | CTCAAGAG | -0.404
69 | AGCTCTAA | -0.0947
70 | AGCATGCA | -0.265
71 | CACTAATA | 0.1
72 | AGACACCT | -0.08
73 | ATATTGTA | -0.0347
74 | CCTTACCG | 0.152
75 | AGTTTGAA | 0.106

Row | Sequence | PBM E-score
76 | CTCTCAGC | -0.266
77 | CCCGCTCG | 0.133
78 | ACGCAGAA | -0.0971
79 | ACAATTGA | -0.101
80 | GTTTAAGA | -0.113
81 | ACCGCAGC | 0.0911
82 | ATACCAGG | -0.0422
83 | AGATTAAC | -0.0696
84 | CCACGGGC | 0.261
85 | AAGGGCCG | -0.0299
86 | GGTACCCA | -0.149
87 | CTCGGGCA | 0.163
88 | CTTAGTGA | -0.146
89 | AGACCATA | 0.0909
90 | CGAGCCGA | 0.0934
91 | ATGACTCC | -0.0497
92 | GCAAGTCC | -0.0656
93 | AACATGCC | 0.0419
94 | CCGCTACA | 0.0753
95 | ATTACCAA | -0.0826
96 | CAACTACA | -0.0758
97 | CCCTGGGA | -0.0191
98 | GCCAGCCA | -0.102
99 | ATGTACCA | -0.0823
100 | CGGTGGAC | 0.0962

Row | Sequence | PBM E-score
101 | GACATGGA | -0.0625
102 | CCTGGAGA | -0.296
103 | GATGTGAC | -0.0769
104 | CACTCGAG | -0.0697
105 | GATCGATC | 0.0712
106 | CCTCCTCC | -0.0324
107 | GCTTACAA | -0.356
108 | AGCCTCGA | -0.144
109 | AAAGGGAT | -0.154
110 | AGAAAGCC | -0.112
111 | CTCTCCTC | -0.26
112 | CGTTCTAC | -0.145
113 | CAAGAAAA | 0.021
114 | TACCCGCA | 0.241
115 | CAATGGAG | -0.169
116 | AGTCACCG | -0.0593
117 | AGAAACCC | -0.0287
118 | TAATGTAA | -0.116
119 | AGCAGCCA | -0.0997
120 | GACTTGAA | -0.0344
121 | CCCTGAAG | -0.216
122 | CCAAGGTC | -0.0505
123 | GCGGTCTA | 0.00056
124 | AGCAATTG | -0.205
125 | ACGCAGCT | -0.219

Row | Sequence | PBM E-score
126 | GGAACCAC | 0.285
127 | CATCCAGG | -0.0852
128 | ATATACTC | -0.115
129 | CACTATAA | -0.289
130 | AGCGTATA | -0.0253
131 | AAGCCGGC | 0.366
132 | CCTTGTAC | -0.102
133 | CCCCATAC | 0.0163
134 | AGCTCAGG | -0.0384
135 | AGTTTTGG | -0.0613
136 | GTGACCTA | -0.088
137 | AAATCCGA | 0.196
138 | CGTGGTAG | -0.0818
139 | CGCTGATC | 0.337
140 | TAACCGAA | 0.0332
141 | ATCTGATC | 0.069
142 | GGTGAATA | 0.0918
143 | AAACAGAC | 0.0447
144 | ACGGACTA | 0.138
145 | CCGTCGCC | 0.31
146 | CGCTTAAG | -0.133
147 | AGGGCATC | -0.173
148 | CATGCGTA | 0.0245
149 | CCAAGAAA | 0.0413
150 | TGCACGCA | -0.139

Row | Sequence | PBM E-score
151 | AATACTAA | 0.0745
152 | ATCAAAAT | -0.206
153 | GGTAGGAA | -0.0585
154 | AACGTTCA | -0.293
155 | ACGTTCGG | 0.101
156 | GCACGAGC | -0.0491
157 | GCATAGAC | -0.12
158 | AGAAACAT | -0.143
159 | AGGGACCA | -0.166
160 | GCTCCGCC | 0.303
161 | AGTCTACC | -0.239
162 | ACTGTTAG | -0.272
163 | GCGTACTA | -0.138
164 | ATGAGCAA | -0.144
165 | AAGACGAT | -0.248
166 | AGCGCGCC | 0.129
167 | AGGACAGC | -0.112
168 | GACACCCC | -0.0762
169 | CACTAACC | -0.0502
170 | ACAAGTGA | -0.174
171 | CGAAGTGA | -0.0304
172 | AACGATCT | 0.0445
